Assay results: the supplement of paper PMC9151546
Repeats are few or missing, and single values can be far off.

Assays:
CHO-K1 [1] = test: micronucleus frequency (% of nucleated events); higher = more micronuclei (genotoxic)
CHO-K1 [2] = test: hypodiploid nuclei frequency (% of nucleated events); higher = more hypodiploid events (aneugenic)
CHO-K1 [3] = test: relative survival (nuclei to bead ratio vs DMSO control) (% of vehicle control); higher = more surviving cells
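Wherever hypodiploid nuclei frequency (% of nucleated events) is given: hypodiploid nuclei gated on a flow cytometer with 488 nm excitation after SYTOX Green staining, cultures at 37 °C, positive controls vinblastine without S9 and cyclophosphamide with S9.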
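Wherever micronucleus frequency (% of nucleated events) is given: cells lysed with nuclei stained by SYTOX Green, then micronucleus-gated events counted against nucleated events by flow cytometry with 488 nm excitation.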
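Wherever relative survival (nuclei to bead ratio vs DMSO control) is given: Lysed-cell nuclei stained with SYTOX Green and counted against counting beads by flow cytometry at 488 nm excitation, with vinblastine (no S9) and cyclophosphamide (plus S9) as positive controls.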

O=C(O)c1ccc([N+](=O)[O-])cc1 [4-Nitrobenzoic acid]
Settings	hypodiploid nuclei frequency, CHO-K1 [2] [%]	micronucleus frequency, CHO-K1 [1] [%]	relative survival, CHO-K1 [3]
concentration: 4.5 (µM), S9 metabolic activation: with S9, exposure time: 3-4 hours	0.16	0.84	102
concentration: 4.5 (µM), S9 metabolic activation: without S9, exposure time: 24 hours	0.54	1.18	101
concentration: 5.63 (µM), S9 metabolic activation: with S9, exposure time: 3-4 hours	0.08	1.38	89
concentration: 5.63 (µM), S9 metabolic activation: without S9, exposure time: 24 hours	0.44	1.18	93
concentration: 7.04 (µM), S9 metabolic activation: with S9, exposure time: 3-4 hours	0.16	1.2	97.1
concentration: 7.04 (µM), S9 metabolic activation: without S9, exposure time: 24 hours	0.56	1.72	122
concentration: 8.8 (µM), S9 metabolic activation: with S9, exposure time: 3-4 hours	0.3	0.92	94
concentration: 8.8 (µM), S9 metabolic activation: without S9, exposure time: 24 hours	0.64	1.22	100
concentration: 11 (µM), S9 metabolic activation: with S9, exposure time: 3-4 hours	0.16	0.9	120
concentration: 11 (µM), S9 metabolic activation: without S9, exposure time: 24 hours	0.66	1.24	103
concentration: 13.7 (µM), S9 metabolic activation: with S9, exposure time: 3-4 hours	0.22	1.04	116
concentration: 13.7 (µM), S9 metabolic activation: without S9, exposure time: 24 hours	0.58	1.54	109
concentration: 17.2 (µM), S9 metabolic activation: with S9, exposure time: 3-4 hours	0.22	0.92	119
concentration: 17.2 (µM), S9 metabolic activation: without S9, exposure time: 24 hours	0.84	1.52	112
concentration: 21.5 (µM), S9 metabolic activation: with S9, exposure time: 3-4 hours	0.2	1.1	111
concentration: 21.5 (µM), S9 metabolic activation: without S9, exposure time: 24 hours	0.7	1.38	121
concentration: 26.8 (µM), S9 metabolic activation: with S9, exposure time: 3-4 hours	0.12	0.96	122
concentration: 26.8 (µM), S9 metabolic activation: without S9, exposure time: 24 hours	0.3	1.58	96
concentration: 33.6 (µM), S9 metabolic activation: with S9, exposure time: 3-4 hours	0.1	0.98	115
concentration: 33.6 (µM), S9 metabolic activation: without S9, exposure time: 24 hours	0.54	1.5	99.1
concentration: 41.9 (µM), S9 metabolic activation: with S9, exposure time: 3-4 hours	0.2	0.9	112
concentration: 41.9 (µM), S9 metabolic activation: without S9, exposure time: 24 hours	0.64	1.64	101
concentration: 52.4 (µM), S9 metabolic activation: with S9, exposure time: 3-4 hours	0.18	0.72	117
concentration: 52.4 (µM), S9 metabolic activation: without S9, exposure time: 24 hours	0.4	1.34	123
concentration: 65.5 (µM), S9 metabolic activation: with S9, exposure time: 3-4 hours	0.08	1.18	127
concentration: 65.5 (µM), S9 metabolic activation: without S9, exposure time: 24 hours	0.56	1.62	104
concentration: 81.9 (µM), S9 metabolic activation: with S9, exposure time: 3-4 hours	0.08	0.86	133
concentration: 81.9 (µM), S9 metabolic activation: without S9, exposure time: 24 hours	0.44	1.44	124
concentration: 102 (µM), S9 metabolic activation: with S9, exposure time: 3-4 hours	0.14	1.12	130
concentration: 102 (µM), S9 metabolic activation: without S9, exposure time: 24 hours	0.78	1.52	97
concentration: 128 (µM), S9 metabolic activation: with S9, exposure time: 3-4 hours	0.18	1	150
concentration: 128 (µM), S9 metabolic activation: without S9, exposure time: 24 hours	0.9	1.68	127
concentration: 160 (µM), S9 metabolic activation: with S9, exposure time: 3-4 hours	0.1	1.08	144
concentration: 160 (µM), S9 metabolic activation: without S9, exposure time: 24 hours	0.64	0.92	115
concentration: 200 (µM), S9 metabolic activation: with S9, exposure time: 3-4 hours	0.32	0.88	138
concentration: 200 (µM), S9 metabolic activation: without S9, exposure time: 24 hours	1.18	2.12	117

O=C1c2c(O)cccc2Cc2cccc(O)c21 [Anthralin]
Settings	hypodiploid nuclei frequency, CHO-K1 [2] [%]	micronucleus frequency, CHO-K1 [1] [%]	relative survival, CHO-K1 [3]
concentration: 4.5 (µM), S9 metabolic activation: with S9, exposure time: 3-4 hours	0.5	1.44	133
concentration: 4.5 (µM), S9 metabolic activation: without S9, exposure time: 24 hours	1.14	2.12	115
concentration: 5.63 (µM), S9 metabolic activation: with S9, exposure time: 3-4 hours	0.52	1.5	135
concentration: 5.63 (µM), S9 metabolic activation: without S9, exposure time: 24 hours	0.72	2.98	92.3
concentration: 7.04 (µM), S9 metabolic activation: with S9, exposure time: 3-4 hours	0.22	1.42	138
concentration: 7.04 (µM), S9 metabolic activation: without S9, exposure time: 24 hours	1.08	1.72	103
concentration: 8.8 (µM), S9 metabolic activation: with S9, exposure time: 3-4 hours	0.22	0.94	116
concentration: 8.8 (µM), S9 metabolic activation: without S9, exposure time: 24 hours	0.88	2.34	108
concentration: 11 (µM), S9 metabolic activation: with S9, exposure time: 3-4 hours	0.38	1.44	113
concentration: 11 (µM), S9 metabolic activation: without S9, exposure time: 24 hours	0.82	2.14	107
concentration: 13.7 (µM), S9 metabolic activation: with S9, exposure time: 3-4 hours	0.34	0.76	118
concentration: 13.7 (µM), S9 metabolic activation: without S9, exposure time: 24 hours	1.06	2.06	98.7
concentration: 17.2 (µM), S9 metabolic activation: with S9, exposure time: 3-4 hours	0.3	1.04	119
concentration: 17.2 (µM), S9 metabolic activation: without S9, exposure time: 24 hours	0.86	1.76	102
concentration: 21.5 (µM), S9 metabolic activation: with S9, exposure time: 3-4 hours	0.32	0.9	101
concentration: 21.5 (µM), S9 metabolic activation: without S9, exposure time: 24 hours	0.88	1.98	103
concentration: 26.8 (µM), S9 metabolic activation: with S9, exposure time: 3-4 hours	0.44	1.58	126
concentration: 26.8 (µM), S9 metabolic activation: without S9, exposure time: 24 hours	1.34	2.92	83.1
concentration: 33.6 (µM), S9 metabolic activation: with S9, exposure time: 3-4 hours	0.42	1.6	146
concentration: 33.6 (µM), S9 metabolic activation: without S9, exposure time: 24 hours	1.62	1.82	83.5
concentration: 41.9 (µM), S9 metabolic activation: with S9, exposure time: 3-4 hours	0.48	1.68	158
concentration: 41.9 (µM), S9 metabolic activation: without S9, exposure time: 24 hours	1.22	2.74	109
concentration: 52.4 (µM), S9 metabolic activation: with S9, exposure time: 3-4 hours	0.32	1.4	160
concentration: 52.4 (µM), S9 metabolic activation: without S9, exposure time: 24 hours	1.26	2.36	117
concentration: 65.5 (µM), S9 metabolic activation: with S9, exposure time: 3-4 hours	0.26	1.28	129
concentration: 65.5 (µM), S9 metabolic activation: without S9, exposure time: 24 hours	1.42	2.74	104
concentration: 81.9 (µM), S9 metabolic activation: with S9, exposure time: 3-4 hours	0.3	0.7	126
concentration: 81.9 (µM), S9 metabolic activation: without S9, exposure time: 24 hours	1.22	2.06	80.1
concentration: 102 (µM), S9 metabolic activation: with S9, exposure time: 3-4 hours	0.28	1.38	110
concentration: 102 (µM), S9 metabolic activation: without S9, exposure time: 24 hours	1.64	2.7	84.9
concentration: 128 (µM), S9 metabolic activation: with S9, exposure time: 3-4 hours	0.22	1	110
concentration: 128 (µM), S9 metabolic activation: without S9, exposure time: 24 hours	1.84	2.78	92.9
concentration: 160 (µM), S9 metabolic activation: with S9, exposure time: 3-4 hours	0.22	1	117
concentration: 160 (µM), S9 metabolic activation: without S9, exposure time: 24 hours	1.8	3.26	83.1
concentration: 200 (µM), S9 metabolic activation: with S9, exposure time: 3-4 hours	0.32	1.1	111
concentration: 200 (µM), S9 metabolic activation: without S9, exposure time: 24 hours	2	3.8	80.5

c1ccc(NNc2ccccc2)cc1 [1,2-Diphenylhydrazine]
Settings	hypodiploid nuclei frequency, CHO-K1 [2] [%]	micronucleus frequency, CHO-K1 [1] [%]	relative survival, CHO-K1 [3]
concentration: 4.5 (µM), S9 metabolic activation: with S9, exposure time: 3-4 hours	0.3	1.46	91.1
concentration: 4.5 (µM), S9 metabolic activation: without S9, exposure time: 24 hours	0.68	1.38	120
concentration: 5.63 (µM), S9 metabolic activation: with S9, exposure time: 3-4 hours	0.36	1.68	87.8
concentration: 5.63 (µM), S9 metabolic activation: without S9, exposure time: 24 hours	0.74	1.64	110
concentration: 7.04 (µM), S9 metabolic activation: with S9, exposure time: 3-4 hours	0.3	2.04	86.7
concentration: 7.04 (µM), S9 metabolic activation: without S9, exposure time: 24 hours	0.94	0.9	119
concentration: 8.8 (µM), S9 metabolic activation: with S9, exposure time: 3-4 hours	0.28	2.14	90
concentration: 8.8 (µM), S9 metabolic activation: without S9, exposure time: 24 hours	0.78	1.3	147
concentration: 11 (µM), S9 metabolic activation: with S9, exposure time: 3-4 hours	0.28	1.56	115
concentration: 11 (µM), S9 metabolic activation: without S9, exposure time: 24 hours	0.64	1.16	134
concentration: 13.7 (µM), S9 metabolic activation: with S9, exposure time: 3-4 hours	0.38	2.08	103
concentration: 13.7 (µM), S9 metabolic activation: without S9, exposure time: 24 hours	0.6	1.14	122
concentration: 17.2 (µM), S9 metabolic activation: with S9, exposure time: 3-4 hours	0.4	2.14	93.8
concentration: 17.2 (µM), S9 metabolic activation: without S9, exposure time: 24 hours	0.58	1.48	119
concentration: 21.5 (µM), S9 metabolic activation: with S9, exposure time: 3-4 hours	0.22	1.3	96
concentration: 21.5 (µM), S9 metabolic activation: without S9, exposure time: 24 hours	1.18	1.46	98.8
concentration: 26.8 (µM), S9 metabolic activation: with S9, exposure time: 3-4 hours	0.24	2.5	84.9
concentration: 26.8 (µM), S9 metabolic activation: without S9, exposure time: 24 hours	0.78	1.22	100
concentration: 33.6 (µM), S9 metabolic activation: with S9, exposure time: 3-4 hours	0.34	2.22	79.9
concentration: 33.6 (µM), S9 metabolic activation: without S9, exposure time: 24 hours	0.54	1.34	118
concentration: 41.9 (µM), S9 metabolic activation: with S9, exposure time: 3-4 hours	0.46	3	72.1
concentration: 41.9 (µM), S9 metabolic activation: without S9, exposure time: 24 hours	1	1.6	112
concentration: 52.4 (µM), S9 metabolic activation: with S9, exposure time: 3-4 hours	0.61	3.52	46.6
concentration: 52.4 (µM), S9 metabolic activation: without S9, exposure time: 24 hours	0.72	1.76	107
concentration: 65.5 (µM), S9 metabolic activation: with S9, exposure time: 3-4 hours	0.8	3.42	44.2
concentration: 65.5 (µM), S9 metabolic activation: without S9, exposure time: 24 hours	1.24	2.18	84.4
concentration: 81.9 (µM), S9 metabolic activation: with S9, exposure time: 3-4 hours	–	–	34.8
concentration: 81.9 (µM), S9 metabolic activation: without S9, exposure time: 24 hours	1.52	3.22	83.8
concentration: 102 (µM), S9 metabolic activation: with S9, exposure time: 3-4 hours	–	–	30.5
concentration: 102 (µM), S9 metabolic activation: without S9, exposure time: 24 hours	1.32	3.32	82.8
concentration: 128 (µM), S9 metabolic activation: with S9, exposure time: 3-4 hours	–	–	18.2
concentration: 128 (µM), S9 metabolic activation: without S9, exposure time: 24 hours	2.48	3.86	48
concentration: 160 (µM), S9 metabolic activation: with S9, exposure time: 3-4 hours	–	–	9.15
concentration: 160 (µM), S9 metabolic activation: without S9, exposure time: 24 hours	1.48	4.02	50.2
concentration: 200 (µM), S9 metabolic activation: with S9, exposure time: 3-4 hours	–	–	2.79
concentration: 200 (µM), S9 metabolic activation: without S9, exposure time: 24 hours	1.52	3.96	42.5
